From PubChem BioAssay AID624417 (National Center for Advancing Translational Sciences (NCATS), 2012)
Out of some 410,000 compounds screened, about 6,400 (1.6%) were called active. This list was built around the results that the source calls inconclusive (neither active nor inactive); the mix of calls is not that of the screen. The call rests on the fitted dose curve; in most records, active means well fitted inhibition curve with a large enough effect; inconclusive means small, poorly fitted or top-dose-only effect; inactive means no such curve, though single readings can be large or run the other way. Potencies of inconclusive entries are left out as doubtful fits.

biological target: Glucagon-like peptide 1 receptor (Homo sapiens) (UniProt P43220); test: qHTS of GLP-1 Receptor Inverse Agonists (Inhibition Mode); conditions: HEK293 GLP-1R CRE-luciferase, luminescence, 24 h, GLP-1R form is constitutively active; activity change, negative = inhibition: at 38.3 µM (top of the series) unless noted; further: nearly all actives have a fitted effect of over 55% in size
Chain of UniProt P43220 (P43220 whole entry, looked up): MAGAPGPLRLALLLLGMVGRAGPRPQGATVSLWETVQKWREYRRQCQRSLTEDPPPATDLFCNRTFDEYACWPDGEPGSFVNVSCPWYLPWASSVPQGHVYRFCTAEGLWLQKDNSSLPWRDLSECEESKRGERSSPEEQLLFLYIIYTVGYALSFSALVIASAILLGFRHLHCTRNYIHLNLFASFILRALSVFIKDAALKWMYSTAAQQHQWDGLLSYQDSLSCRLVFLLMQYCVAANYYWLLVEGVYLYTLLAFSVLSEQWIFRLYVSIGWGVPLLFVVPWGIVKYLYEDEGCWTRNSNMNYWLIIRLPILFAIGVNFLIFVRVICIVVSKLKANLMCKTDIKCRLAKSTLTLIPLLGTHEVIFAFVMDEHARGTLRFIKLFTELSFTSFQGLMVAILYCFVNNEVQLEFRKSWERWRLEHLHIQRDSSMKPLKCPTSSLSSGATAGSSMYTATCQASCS
Outline: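 Inverse agonists were sought by their lowering of basal cAMP reporter luciferase output in HEK293 cells stably carrying constitutively active human GLP-1R, after 24 h compound treatment.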
On the % scale 0 is the no-effect control and ±100 the full control effect; potency means the concentration at half of the fitted maximal effect; tags describe the fitted curve by direction and shape.

Row | SMILES | Potency | activity change, negative = inhibition
1 | Cc1ccccc1NC(=S)NC(=O)C1CCCCC1 | active: 8.91 µM | –
2 | Cc1cc2ncn(-c3ncnc4scc(-c5ccccc5)c34)c2cc1C | inconclusive [inhibitor, partial curve] | –
3 | COc1ccc(CN(CCC(c2ccccc2)c2ccco2)C(=O)c2ccco2)cc1 (stereo not drawn) | inconclusive [inhibitor, single point] | –
4 | Cc1c(C(=O)NCC2CC2)sc(=O)n1Cc1cccc(F)c1 | – | inactive: 19.5%
5 | Fc1ccc(-[n+]2nc(Nc3ccccc3)sc2-c2ccc(OCc3ccccc3)cc2)cc1 | inconclusive [inhibitor, single point] | –
6 | Cc1cccc(NC(=O)Cn2c(O)c(N=NC(N)=S)c3ccccc32)c1 | inconclusive [inhibitor, partial curve, poor fit] | –
7 | COc1cccc(NC(=O)CN(C)C(=O)Cc2ccc3c(c2)CCC3)c1 | inconclusive [inhibitor, partial curve, poor fit] | –
8 | O=C(Nc1nc2ccccc2[nH]1)C1CCCC1 | – | inactive: -6.38%
9 | O=C(C[n+]1ccccc1)N/N=C/c1ccc(Cl)c(Cl)c1 | – | inconclusive: -40.5% [inhibitor]
10 | CCCC1=C(C(=O)OCC)C(c2ccc(F)cc2)n2ncnc2N1 (stereo not drawn) | inconclusive [inhibitor, partial curve, poor fit] | –
11 | CN1CCN(/N=C/c2ccc(-c3ccccc3)cc2)CC1 | inconclusive [inhibitor, partial curve, poor fit] | –
12 | CCS(=O)(=O)N1CCc2cc(C(=O)Nc3cc(C)cc(C)c3)ccc21 | inconclusive [inhibitor, partial curve, poor fit] | –
13 | CC1(C(=O)OCC(=O)Nc2ccc3ccccc3c2)CC1(Cl)Cl (stereo not drawn) | inconclusive [inhibitor, partial curve, poor fit] | –
14 | Cc1csc(NC(=O)C2CCCN(S(=O)(=O)c3ccc(Br)s3)C2)n1 (stereo not drawn) | inconclusive [inhibitor, single point] | –
15 | Cc1ccc(C)c(N2CCN(C(=O)NCc3noc4ccccc34)CC2)c1 | inconclusive [inhibitor, single point] | –
16 | Cc1ccc(NC(=S)N2CCN(Cc3ccccc3)CC2)c(C)c1 | inconclusive [inhibitor, single point] | –
17 | C=C1C(=O)[C@]23C[C@H]1CCC2[C@]1(C)C(=O)CC[C@@](C)(C(=O)O)C1C[C@@H]3O (stereo partly drawn) | inconclusive [inhibitor, single point] | –
18 | CCN(CC)CCN(C(=O)c1ccc2c(c1)CCCC2)c1nc2c(C)cccc2s1 | inconclusive [inhibitor, partial curve, poor fit] | –
